Structures are written as SMILES. About 2,200 (0.71%) of roughly 310,000 compounds showed an effect of 50% or more. The effect is printed as a negative number. The list shows a part of the results.

Results on 89 molecules are retold here after publication PMC4336329 (PLoS ONE, 2015).

For this assay, the target named is human ether-à-go-go-related gene (hERG) potassium channel (human, UniProt Q12809). Put plainly: primary screen, population patch clamp on CHO cells stably expressing hERG.
Sequence of human ether-à-go-go-related gene (hERG) potassium channel (Q12809 whole entry, looked up): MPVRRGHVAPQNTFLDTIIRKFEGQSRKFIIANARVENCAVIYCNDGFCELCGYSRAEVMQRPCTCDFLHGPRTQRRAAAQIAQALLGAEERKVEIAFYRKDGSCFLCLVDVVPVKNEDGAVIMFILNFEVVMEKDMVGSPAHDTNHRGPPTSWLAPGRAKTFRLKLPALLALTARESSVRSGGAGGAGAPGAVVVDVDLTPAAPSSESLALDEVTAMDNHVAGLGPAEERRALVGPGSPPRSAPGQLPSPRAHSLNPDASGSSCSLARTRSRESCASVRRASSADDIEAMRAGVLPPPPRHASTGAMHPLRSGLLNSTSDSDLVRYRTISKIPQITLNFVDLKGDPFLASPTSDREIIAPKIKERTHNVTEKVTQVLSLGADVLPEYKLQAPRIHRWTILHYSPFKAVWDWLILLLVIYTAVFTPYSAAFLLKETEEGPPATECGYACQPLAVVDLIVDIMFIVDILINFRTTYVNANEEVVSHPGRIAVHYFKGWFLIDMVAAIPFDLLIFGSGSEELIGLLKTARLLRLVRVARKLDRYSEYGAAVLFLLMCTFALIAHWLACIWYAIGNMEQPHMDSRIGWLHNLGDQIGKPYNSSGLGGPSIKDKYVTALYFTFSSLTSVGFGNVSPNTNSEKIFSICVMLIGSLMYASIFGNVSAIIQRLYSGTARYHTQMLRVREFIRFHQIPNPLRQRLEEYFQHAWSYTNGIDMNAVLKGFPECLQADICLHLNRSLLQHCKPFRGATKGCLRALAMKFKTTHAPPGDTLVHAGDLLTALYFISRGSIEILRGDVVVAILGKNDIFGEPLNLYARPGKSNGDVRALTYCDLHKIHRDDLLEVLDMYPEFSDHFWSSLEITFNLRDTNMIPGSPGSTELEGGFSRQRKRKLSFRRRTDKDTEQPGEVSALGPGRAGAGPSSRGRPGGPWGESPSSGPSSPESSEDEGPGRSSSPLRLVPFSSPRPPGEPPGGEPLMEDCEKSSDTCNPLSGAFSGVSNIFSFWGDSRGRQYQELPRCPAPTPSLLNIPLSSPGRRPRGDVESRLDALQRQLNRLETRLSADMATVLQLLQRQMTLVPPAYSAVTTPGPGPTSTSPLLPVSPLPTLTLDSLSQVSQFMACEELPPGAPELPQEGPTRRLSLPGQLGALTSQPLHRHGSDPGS
Turning to `O=C(C1CCCN(Cc2ccccc2Cl)C1)N1CCCCC1.O=C(O)C(=O)O` (centres unmarked), the “hERG current change (%, negative = inhibition) at 1uM” value is given as 2.88%.

For the molecule `O=C1c2ccc(Cl)cc2S(=O)(=O)c2cccc(C(=O)N3CCC(Cc4ccccc4)CC3)c21`, the “hERG current change (%, negative = inhibition) at 1uM” value is 16.1%. The same measure for `Cc1noc(/C=C/N(C)C)c1S(=O)(=O)N1CCN(c2ccccc2)CC1`: 5.41%. The same measure for `Cc1ccc(OCC(=O)N/N=C/c2ccc([N+](=O)[O-])o2)cc1`: -0.386%; for `CCCC(=O)Nc1cc(C)c(NC(=O)c2ccccn2)cn1`: 12.5%.

As to `CCOc1ccc(S(=O)(=O)NCc2ccncc2)cc1NC(=O)c1ccccc1`, the “hERG current change (%, negative = inhibition) at 1uM” value is -16.5%. As for `CN(C)S(=O)(=O)c1cccc(NC(=O)CN2C(=O)NC(CCc3ccccc3)C2=O)c1` (centres unmarked), the “hERG current change (%, negative = inhibition) at 1uM” value came out at 7.11%. The same measure for `CCCCc1nc2cc(C(=O)N3CCN(c4cnccn4)CC3)ccc2o1`: 1.87%; for `C=CCOc1ccccc1/C=c1\sc2nc(-c3oc4ccccc4c3C)nn2c1=O`: -3.41%.

As for `Cl.N=c1ccn(CC(=O)NC(N)=O)c2ccccc12`, the “hERG current change (%, negative = inhibition) at 1uM” value amounted to 2.02%. Take `Cc1cccc(Nc2ccncc2S(N)(=O)=O)c1`: the “hERG current change (%, negative = inhibition) at 1uM” value turned out to be 8.74%. In the case of `O=C(CCCSc1ccccc1)Nc1nc(-c2ccco2)c(-c2ccco2)s1`, the “hERG current change (%, negative = inhibition) at 1uM” value is recorded as 5.77%.

As to `COc1cc2c(cc1OC)-c1c(OC)c(OC)cc3ccnc(c13)C2=O`, the “hERG current change (%, negative = inhibition) at 1uM” value turned out to be 3.86%. With `COc1ccc(/C(O)=C2/C(=O)C(=O)N(CC3CCCO3)C2c2cccc(OC)c2)cc1` (centres unmarked), the “hERG current change (%, negative = inhibition) at 1uM” value is 13.8%. The same measure for `CC1CCN(S(=O)(=O)c2cccc(C(=O)Oc3ccc([N+](=O)[O-])cc3)c2)CC1`: 13.1%; for `CC(C)(C)c1[nH]nc2c1C(c1ccncc1)C(C#N)=C(N)O2` (centres unmarked): 14%. For `Cc1ccc(-c2nc(CN(C)C3CCOCC3)c(C)o2)s1`, the “hERG current change (%, negative = inhibition) at 1uM” value is on record as 0.24%. Regarding `O=C(O)c1nccnc1C(=O)Nc1ccccc1-c1ccccc1`, the “hERG current change (%, negative = inhibition) at 1uM” value worked out at 4.75%. The same measure for `CCOC(=O)Cn1ccc(NC(=O)c2ccc3c(c2)OCO3)n1`: 13.5%.

For `O=C(O)CSCC(=O)N1CCN(c2ncnc3scc(-c4ccccc4)c23)CC1`, the “hERG current change (%, negative = inhibition) at 1uM” value turned out to be 13.6%.

Turning to `O=C(CCN1C(=O)c2ccncc2C1=O)Nc1ccc2c(c1)OCCO2`, the “hERG current change (%, negative = inhibition) at 1uM” value was 3.29%.

As for `CC(=O)Nc1ccc(S(=O)(=O)NCCC(=O)N2CCc3ccccc32)cc1`, the “hERG current change (%, negative = inhibition) at 1uM” value was found to be 12.1%.

With `NCC(c1ccccc1)c1c[nH]c2ccccc12` (centres unmarked), the “hERG current change (%, negative = inhibition) at 1uM” value is reported as 15.5%.

Take `COc1ccc(CN(Cc2nc3ccccc3c(=O)[nH]2)C(=O)NC2CCCCC2)cc1`: the “hERG current change (%, negative = inhibition) at 1uM” value is reported as 6.95%.

As for `Cc1cc(=O)nc2c3ccccc3n(C(C)C(=O)NCCC(C)C)n12` (centres unmarked), the “hERG current change (%, negative = inhibition) at 1uM” value was determined as 14.9%. Turning to `CC1(C)CC2CC(C)(CN2C(=S)Nc2ccccc2F)C1` (centres unmarked), the “hERG current change (%, negative = inhibition) at 1uM” value is listed as 11.2%. The same measure for `COCCCNC(=O)c1ccc2c(=O)n(Cc3ccc(Cl)cc3)c(=S)[nH]c2c1`: 19.7%; for `O=C(CSc1nnc(CNC(=O)c2ccco2)o1)NC1CCCC1`: 7.3%; for `Cc1cc(C)nc(NS(=O)(=O)c2ccc(NC(=O)c3ccccc3C)cc2)n1`: 15.4%. With `Cc1ccc(C(=O)NCC(=O)Nc2cccc(C(F)(F)F)c2)cc1`, the “hERG current change (%, negative = inhibition) at 1uM” value came to 14.1%. The value for `CSc1ccc(CN(C)C(=O)CNC(=O)c2sc3ccccc3c2Cl)cc1` was 13.2%. The same measure for `CCN(CCCNC(=O)CC(C(=O)N1CCc2ccccc21)n1ccnc1)c1ccccc1` (centres unmarked): -12%; for `Cc1occc1C(=O)N1CCCC(N2CCN(c3ccccc3F)CC2)C1` (centres unmarked): 2.63%; for `O=C(NCCc1cccs1)C1CC(c2ccc([N+](=O)[O-])cc2)=NO1` (centres unmarked): -20.3%. With `Cc1[nH]c(=O)c(C(=O)c2cc(Cl)ccc2O)cc1C(=O)O`, the “hERG current change (%, negative = inhibition) at 1uM” value was found to be 4.98%.

As for `Cc1ccc(NC(=O)C2CC(=O)Nc3nc4ccccc4n32)c(C)c1` (centres unmarked), the “hERG current change (%, negative = inhibition) at 1uM” value stood at 6.22%. The same measure for `Cc1ccc(COc2ccccc2C(=S)N2CCCC2)cc1`: 16.3%; for `CCc1ccc(-c2nc(CS(=O)CC(=O)NCc3cccnc3)c(C)o2)cc1` (centres unmarked): 2.28%; for `Cc1ccc(N2C(=O)NC(=O)C(CCc3ccccn3)(Cc3ccc(F)cc3)C2=O)cc1` (centres unmarked): 13.6%. The same measure for `C=CCC1Cc2c(cccc2[N+](=O)[O-])C(CC=C)N1` (centres unmarked): 0.936%. On to `COc1cccc(-n2c(SCC(=O)NCC3CCCO3)nc3c(c2=O)SCC3)c1` (centres unmarked), for which the “hERG current change (%, negative = inhibition) at 1uM” value is 13.6%. As to `COC(=O)CSc1nnc(COc2ccc([N+](=O)[O-])cc2)n1C`, the “hERG current change (%, negative = inhibition) at 1uM” value is listed as -9.79%.

For `Cn1c(=S)n(/N=C/c2ccc3c(c2)OCO3)c2ccccc21`, the “hERG current change (%, negative = inhibition) at 1uM” value is recorded as 11.5%. The same measure for `CN(C)c1ccc(-n2cccc2/C=N/n2cnnc2)cc1`: 12.6%. Consider `CC(C)(C)OC(=O)N1Cc2ccccc2C[C@H]1C(=O)O`, for which the “hERG current change (%, negative = inhibition) at 1uM” value was 13.6%. The same measure for `Cc1ccc(C(=O)NNC(=O)C2CSC3(C)CCC(=O)N23)cc1` (centres unmarked): 15.7%. Regarding `O=C(NC1=NCCS1)C12CC3CC(CC(C3)C1)C2`, the “hERG current change (%, negative = inhibition) at 1uM” value came out at 12.5%. The same measure for `CCC1CCCCN1C(=O)CCC(=O)Nc1nnc(C(F)(F)F)s1` (centres unmarked): 14.5%; for `Cc1ccc(CN(c2ccc(C(=O)N3CCOCC3)cc2)S(C)(=O)=O)cc1`: 8.04%.

As for `COC(=O)c1ccc(/C=C(\C#N)c2nc3ccccc3s2)cc1`, the “hERG current change (%, negative = inhibition) at 1uM” value is listed as 9.32%.

For `COc1ccc(N2CCCC2)c(NC(=O)c2ccc([N+](=O)[O-])o2)c1`, the “hERG current change (%, negative = inhibition) at 1uM” value was determined as 11.3%.

As for `CCOC(=O)c1cnc2c(c(C)nn2C)c1Oc1ccc(Cl)cc1`, the “hERG current change (%, negative = inhibition) at 1uM” value is given as 16.7%. The same measure for `CCOCC(=O)Nc1nnc(COc2ccc(Cl)cc2)s1`: 2.61%. The same measure for `Cc1c(CCC(=O)NCCCN2CCCC2=O)c(=O)oc2c(C)c(O)ccc12`: 11.6%; for `CCC(C)(C)NC(=O)C(c1ccc(OC)cc1)N(CCOC)C(=O)CCC(=O)Nc1nccs1` (centres unmarked): 8.8%. Regarding `COC(CNC(=O)c1ccc(CS(=O)(=O)c2ccc(Br)cc2)o1)OC`, the “hERG current change (%, negative = inhibition) at 1uM” value was found to be 10.1%. With `CN(Cc1ccc(F)cc1)C(=O)c1cccc(S(=O)(=O)N2CCN(c3ccc(F)cc3)CC2)c1`, the “hERG current change (%, negative = inhibition) at 1uM” value is on record as -9.89%.

Take `CCC(NC(=O)CCc1nnc(-c2cc(C)on2)o1)C12CC3CC(CC(C3)C1)C2` (centres unmarked): the “hERG current change (%, negative = inhibition) at 1uM” value amounted to 11.2%. The value for `CSc1cnc2c(=O)[nH]c(=O)n(C)c2n1` was 7.35%. As to `CC1(c2nnc(-c3ccc(Cl)cc3)o2)CC(c2ccc(Cl)cc2)=NO1` (centres unmarked), the “hERG current change (%, negative = inhibition) at 1uM” value is 15.5%.

As to `Cc1cc(C(=O)N(C)CC(=O)Nc2ccc(F)c(F)c2F)no1`, the “hERG current change (%, negative = inhibition) at 1uM” value came out at 16.8%.

Take `Cc1csc(C(C#N)C(=O)c2ccc(S(=O)(=O)N3CCCC3)cc2)n1` (centres unmarked): the “hERG current change (%, negative = inhibition) at 1uM” value was 12.2%. The same measure for `Fc1cccc(F)c1/C=N/Nc1ccccn1`: 16.5%; for `N#CCCN(Cc1cccs1)C(=O)Nc1ccccc1`: 7.86%; for `S=C(NCc1cccs1)Nc1ccccc1Cl`: 9.28%.

Turning to `O=C(N/N=C\C=C\c1ccco1)C1COc2ccccc2O1` (centres unmarked), the “hERG current change (%, negative = inhibition) at 1uM” value was determined as 11.3%. The same measure for `COc1ccc(CNC(=O)c2ccc(S(=O)(=O)NCc3ccco3)cc2)cc1`: 9.81%; for `COc1cccc(CNC(=O)[C@H](CCSC)NC(=O)N2CCn3c2nc2ccccc23)c1`: 12.6%; for `Cc1ccccc1NC(=O)Cc1nc(CCl)cs1`: 10.6%. As for `O=C(/C=C/c1cccs1)Nc1ccncc1`, the “hERG current change (%, negative = inhibition) at 1uM” value stood at 10.5%. For the molecule `COc1ccc(OC)c(-c2cc(C(=O)Nc3ccc(F)cc3F)no2)c1`, the “hERG current change (%, negative = inhibition) at 1uM” value was found to be 10.9%. Consider `C#CCOC(=O)C[N+](C)(C)C/C=C/c1ccccc1.[Cl-]`, for which the “hERG current change (%, negative = inhibition) at 1uM” value is reported as 10%. With `COc1cc(C2C(C#N)=C(N)OC3=C2C(=O)CC(C)(C)C3)ccc1OCCN1CCOCC1` (centres unmarked), the “hERG current change (%, negative = inhibition) at 1uM” value is on record as 14.9%. In the case of `CCN1CCN(CC(O)COC(c2ccccc2)c2ccccc2C)CC1.O=C(O)C(=O)O` (centres unmarked), the “hERG current change (%, negative = inhibition) at 1uM” value stood at 8.96%. Take `CCOc1ccccc1NC(=O)CSc1nnc(Cc2cccn2C)n1-c1ccc(F)cc1`: the “hERG current change (%, negative = inhibition) at 1uM” value was -8.2%. With `CCc1ccccc1NC(=O)N[C@H](C(=O)O)C(C)C`, the “hERG current change (%, negative = inhibition) at 1uM” value was 9.34%. `O=C(COC(=O)c1cc[n+]([O-])cc1)Nc1ccc(Br)cc1`: the “hERG current change (%, negative = inhibition) at 1uM” value amounted to 0.628%. As for `CCc1ccc(-c2cc(C)no2)cc1S(=O)(=O)NCCCN1CCN(c2ccccc2)CC1`, the “hERG current change (%, negative = inhibition) at 1uM” value was 12.7%. Turning to `Cc1cc(NS(=O)(=O)c2ccc(NC(=S)NC(=O)c3ccc(C(C)(C)C)cc3)cc2)no1`, the “hERG current change (%, negative = inhibition) at 1uM” value was determined as 16.3%. For the molecule `COc1ccccc1C(=O)NCC(=O)OCC(=O)Nc1ccc2[nH]c(=O)[nH]c2c1`, the “hERG current change (%, negative = inhibition) at 1uM” value is -10.3%. As for `CCCCOCCCn1cnc2c([nH]c3cc(OC)ccc32)c1=O`, the “hERG current change (%, negative = inhibition) at 1uM” value is given as -3.86%.

For the molecule `O=C(COc1cccc(F)c1)NNC(=O)c1cccc(-n2cccc2)c1`, the “hERG current change (%, negative = inhibition) at 1uM” value amounted to 11%. In the case of `CC(O)CN(Cc1ccc(Cl)cc1)CC(C)O` (centres unmarked), the “hERG current change (%, negative = inhibition) at 1uM” value turned out to be 13.8%. As for `O=C(N/C(=C/c1cccs1)c1nc2ccccc2[nH]1)c1ccccc1`, the “hERG current change (%, negative = inhibition) at 1uM” value is given as -3.04%.

Consider `COc1ccc(CCC(=O)Nc2cc(S(C)(=O)=O)ccc2Cl)cc1`, for which the “hERG current change (%, negative = inhibition) at 1uM” value is on record as 7.15%. For `Nn1c(COc2ccccc2F)nnc1SCC(=O)NC1CCCCC1`, the “hERG current change (%, negative = inhibition) at 1uM” value was 6.63%.

With `Cc1oc(C(C)(C)C)cc1C(=O)Nc1cccc(C(=O)O)c1`, the “hERG current change (%, negative = inhibition) at 1uM” value came out at 6.62%. The same measure for `CCN1C(=O)c2ccc(C(=O)Nc3ccc4c(c3)OCO4)cc2C1=O`: 9.93%; for `OCC1(Cc2cccc(Cl)c2)CCCN(Cc2cn[nH]c2C2CCCCC2)C1` (centres unmarked): 5.48%.
